Laboratory results taken from paper PMC4336329 (PLoS ONE, 2015).
Hit rate of the full screen: of about 310,000 compounds, about 2,200 (0.71%) showed an effect of 50% or more. The effect is printed as a negative number. Some of the results follow.

Target: human ether-à-go-go-related gene (hERG) potassium channel (human, UniProt Q12809)
Assay: primary screen, population patch clamp on CHO cells stably expressing hERG

human ether-à-go-go-related gene (hERG) potassium channel, sequence (Q12809 whole entry, looked up): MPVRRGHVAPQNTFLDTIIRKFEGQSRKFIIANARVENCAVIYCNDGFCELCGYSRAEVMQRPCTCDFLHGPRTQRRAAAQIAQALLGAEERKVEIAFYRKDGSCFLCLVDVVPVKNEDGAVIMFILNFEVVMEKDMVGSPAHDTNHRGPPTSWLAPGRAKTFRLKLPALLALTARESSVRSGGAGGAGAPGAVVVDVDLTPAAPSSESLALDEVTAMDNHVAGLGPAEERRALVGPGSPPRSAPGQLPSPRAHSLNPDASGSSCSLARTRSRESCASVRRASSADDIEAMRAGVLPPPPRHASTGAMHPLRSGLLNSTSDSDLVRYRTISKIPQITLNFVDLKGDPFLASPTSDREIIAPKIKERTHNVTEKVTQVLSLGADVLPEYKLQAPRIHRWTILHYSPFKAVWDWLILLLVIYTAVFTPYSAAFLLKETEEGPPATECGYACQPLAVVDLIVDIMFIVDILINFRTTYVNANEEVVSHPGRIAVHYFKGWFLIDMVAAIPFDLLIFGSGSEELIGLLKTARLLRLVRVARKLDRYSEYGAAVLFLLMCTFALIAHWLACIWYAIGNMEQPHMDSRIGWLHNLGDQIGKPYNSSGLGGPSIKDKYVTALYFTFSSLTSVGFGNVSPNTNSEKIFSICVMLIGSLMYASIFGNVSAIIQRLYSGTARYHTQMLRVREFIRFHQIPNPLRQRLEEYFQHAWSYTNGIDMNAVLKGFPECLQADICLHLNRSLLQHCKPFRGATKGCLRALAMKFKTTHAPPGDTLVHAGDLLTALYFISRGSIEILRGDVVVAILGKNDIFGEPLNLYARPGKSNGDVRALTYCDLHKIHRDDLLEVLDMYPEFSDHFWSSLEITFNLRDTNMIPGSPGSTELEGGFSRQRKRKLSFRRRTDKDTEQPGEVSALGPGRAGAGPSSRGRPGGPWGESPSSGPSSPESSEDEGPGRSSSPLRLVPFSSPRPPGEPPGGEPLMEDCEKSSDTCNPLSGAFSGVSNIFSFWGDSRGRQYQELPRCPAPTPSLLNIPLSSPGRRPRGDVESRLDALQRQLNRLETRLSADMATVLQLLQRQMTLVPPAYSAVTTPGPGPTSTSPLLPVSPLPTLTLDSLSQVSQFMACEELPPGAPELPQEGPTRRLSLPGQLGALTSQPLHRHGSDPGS

Row | SMILES | hERG current change (%, negative = inhibition) at 1uM [%]
1 | CC1(C)CC(=O)C=C(NCc2cccnc2)C1 | 10.2
2 | COc1cc(CO)ccc1OCc1ccc(Cl)nc1 | -2.78
3 | CC(=O)NS(=O)(=O)c1ccc(Nc2ccc([N+](=O)[O-])c3nonc23)cc1 | 7.81
4 | CC(=O)c1cc(F)c(N2CCN(C(=O)COc3ccc(F)cc3)CC2)cc1C | -38.2
5 | CCOC(=O)c1ccc(NC(=O)CNC(=O)C23CC4CC(CC(C4)C2)C3)cc1 | 13.3
6 | C(/C=C/C=C/Nc1ccccc1)=Nc1ccccc1 | 4.56
7 | CCOc1ccc(/C=N/Nc2ccccn2)cc1OC | -3.7
8 | CCC(C)(C)n1nnnc1C(c1cc(OC)ccc1OC)N1CCN(Cc2ccccc2)CC1 (centres unmarked) | 2.89
9 | COc1ccc(CC(=O)NC(C)c2nnc(SCC(=O)Nc3cc(C)ccc3OC)n2C)cc1 (centres unmarked) | 8.52
10 | CC12C(=O)N(NC(=O)c3ccncc3)C(=O)C1C1C=CC2C1 (centres unmarked) | 13.5
11 | CCCCN(C(=O)c1cccc(-n2cnnn2)c1)c1c(N)n(CC(C)C)c(=O)[nH]c1=O | 2.91
12 | CCN(CC)CCNC(=O)/C(=N\O)c1ccccn1 | 14.8
13 | O=C(COc1ccccc1[N+](=O)[O-])N/N=C/c1ccc(O)cc1 | 5.18
14 | CC1(C)CC(=O)C(N=Nc2ccc(S(=O)(=O)N3CCCCCC3)cc2)=C(O)C1 | 3.82
15 | CCOC(=O)c1ccc(NC(=O)Nc2ccc(F)cc2)cc1 | 11.3
16 | CC(=O)NCCNc1nc2c(-c3cccc(C(F)(F)F)c3)nnn2c2ccccc12 | 15.1
17 | O=C(NCc1ccccc1)C(=O)NCC1OCCCN1S(=O)(=O)c1cccs1 (centres unmarked) | 16.3
18 | O=C(Nc1ccccc1Cc1ccccc1)c1ccccc1F | -2.97
19 | O=S(=O)(c1cccc(-c2csc(-c3ccccc3)n2)c1)N1CCOCC1 | 5.72
20 | O=C(NC1(c2ccccc2)CC1)C1CCC(=O)N(Cc2ccc(Cl)cc2)C1 (centres unmarked) | 7.09
21 | Cc1ccccc1CN(C)C(=O)c1ccc2ccccc2n1 | 12.9
22 | Cc1ccc(S(=O)(=O)N2CCN(S(=O)(=O)N3CCCCC3)CC2)c(C)c1 | -3.76

Row | SMILES | hERG current change (%, negative = inhibition) at 1uM [%]
23 | CCCc1c(O)nc(SCC(=O)O)[nH]c1=O | 26.8
24 | O=C1CCCCC1S(=O)(=O)c1ccccc1 (centres unmarked) | -1.94
25 | CCOC(=O)c1nn(-c2ccc(OC)cc2)c(=O)c2c(N)scc12 | 10.1
26 | Cc1ccc2nc(=O)c(NNc3ccccc3)cnc2c1 | 21.2
27 | Cc1ccc(Nc2[nH]c(=O)c3ccccc3c2C(=O)c2ccccc2)cc1 | 12.1
28 | O=S(=O)(c1ccc(Cl)c(C(F)(F)F)c1)N1CCN(c2ccccn2)CC1 | 11.9
29 | CCN(CC)S(=O)(=O)c1ccc(NC(=O)c2ccc(NS(C)(=O)=O)cc2)cc1 | 11.8
30 | CCOC(=O)N1CCN(C(=O)CSCc2ccccc2)CC1 | 8.59
31 | Cc1cc(NC(=O)CSCC(=O)Nc2cc(Cl)ccc2N2CCN(C)CC2)no1 | 9.87
32 | N#C/C(=C\c1ccc(N2CCCCC2)c([N+](=O)[O-])c1)c1nn(-c2ccccc2)c(N)c1C#N | 14.5
33 | COc1ccc(/C=C/C(=O)NCCCN2CCCCCC2)cc1 | -12.6
34 | CCCC(=O)Nc1c2c(nn1-c1ccc(C)cc1)CS(=O)(=O)C2 | 14.4
35 | CSc1cccc(NC(=O)COC(=O)C2CCN(S(=O)(=O)c3ccccc3)CC2)c1 | 6.91
36 | COc1ccc(C(=O)Nc2nc3cc4c(cc3s2)OCO4)c(OC)c1 | 9.56
37 | CCN(CC)c1ccc(-c2c(C#N)c(N)nc(OC)c2C#N)cc1 | 11
38 | COc1cc(OC)cc(C(=O)NNC(=O)c2ccc(S(=O)(=O)N3CC(C)OC(C)C3)cc2)c1 (centres unmarked) | 12
39 | CCN1CCN(Cc2ccc(NC(=O)c3ccc(C)c(NC(=O)c4ccc5n[nH]nc5c4)c3)cc2C(F)(F)F)CC1 | 11.4
40 | COC(=O)c1ccc(-n2c(C)ccc2-c2ccccc2)cc1 | 5
41 | CCOC(=O)c1c(C)[nH]c(C)c1C(=O)CSc1nc(N)cc(=O)[nH]1 | -1.72
42 | Cn1c(=O)c2c(-c3ccccc3)n(-c3ccccc3O)cc2n(C)c1=O | 4.07
43 | Cc1cc(N2CCOCC2)nc2ccc(NC(=O)C3CCC(C)CC3)cc12 (centres unmarked) | -16.6
44 | CC(C)C[C@H]1CN=C(Nc2ccccc2)N1CC1CCC(C(C)(C)C)CC1 (some centres unmarked) | -14.4

Row | SMILES | hERG current change (%, negative = inhibition) at 1uM [%]
45 | C=CCNC(=O)c1onc(CSc2ccccc2)c1C(=O)NCC=C | 6.41
46 | CC(C)Oc1ccc(C(=O)Nc2ccc(Cl)c(S(=O)(=O)Nc3ccc(Cl)cc3)c2)cc1 | 13
47 | COc1ccc(Br)cc1-c1noc(-c2ccccc2F)n1 | 17.8
48 | COc1cc(C(CCN2CCCCC2)c2c(OC)cc(OC)c3c(C)cc(=O)oc23)cc(OC)c1OC (centres unmarked) | -96.3
49 | CC(=O)Nc1nc(NC(=O)/C=C/c2ccccc2)n(-c2ccccc2)n1 | 3.03
50 | COc1cccc(C(=O)NCCSCc2ccccc2Cl)c1 | 9.14
51 | C[C@H](O)[C@H](O)[C@H]1CNc2nc(N)[nH]c(=O)c2N1.Cl | 5.49
52 | COc1ccc(C(=O)Nc2cc(Cl)ccc2-n2cncn2)c(OC)c1OC | 4.68
53 | CCOc1ccc(Cc2nnc(N)s2)cc1OCC | 2.08
54 | CCc1[nH]nc2c1C1(CCN(C(=O)c3ccccc3)CC1)C(C#N)=C(N)O2 | -6.15
55 | O=C(NCCN1CCN(C(=O)c2cc3ccccc3oc2=O)CC1)c1cc2ccccc2oc1=O | -0.615
56 | CCCS(=O)(=O)N1CCCC(C(=O)NCCc2ccc(OC)c(OC)c2)C1 (centres unmarked) | -0.42
57 | CCn1cc2c(c1-c1cccc(C)c1)c(=O)n(C)c(=O)n2C | 13.4
58 | c1ccc(-n2ncc(-c3nn[nH]n3)n2)cc1 | -0.154
59 | NC(=O)C1CCCN(Cc2ccc3ccccc3c2)C1 (centres unmarked) | 11.2
60 | CSc1ccccc1C(=O)Nc1cccc(C(C)=O)c1 | 10
61 | N#Cc1c(NCCCO)nc(-c2ccccc2)c2c1CCCC2 | 10.5
62 | COC(=O)C1=C(c2ccc(C(C)=O)cc2)C[C@@H]2CC[C@H]1N2C(=O)N1CCC(C)CC1 | 15.2
63 | COc1ccc(-c2nn(Cc3ccccc3)cc2C(=O)N2CCN(c3ccccn3)CC2)cc1OC | -12.6
64 | O=C(COc1ccc(Cl)cc1)OCC(=O)N1CCCC1 | 7.62
65 | CCc1ccc(NC(=O)C2CCN(S(=O)(=O)c3c(C)[nH]c(=O)[nH]c3=O)CC2)cc1 | -3.88
66 | O=C(CSc1ncnc2scc(-c3ccccc3)c12)NC1CCS(=O)(=O)C1 (centres unmarked) | 7.97

Row | SMILES | hERG current change (%, negative = inhibition) at 1uM [%]
67 | CC(=O)Oc1ccc(C(=O)Nc2ccc3c(c2)C(=O)N(CCC(=O)O)C3=O)cc1 | 10.6
68 | CCCCCCSc1nnc2[nH]c(=O)cc(N)n12 | 12.3
69 | COc1ccc(/C=C/C(=O)c2ccc[nH]2)cc1OC | 8.46
70 | Cc1cc(C)c2cc(CN(Cc3ccc4c(c3)OCO4)Cc3nnnn3Cc3ccco3)c(=O)[nH]c2c1 | 10.8
71 | Cc1cccc(OCc2nnc(SCc3cc(=O)n4cc(Br)ccc4n3)o2)c1 | 1.61
72 | Cl.O=C(NC12CC3CC(CC(C3)C1)C2)OCCNC1CCCCC1 | 15.6
73 | Cc1cc2oc(=O)c(CC(=O)O)c(C)c2c2occ(C(C)(C)C)c12 | 14.6
74 | CCN(c1ccccc1)S(=O)(=O)c1cccc(C(=O)NCC2(N(C)C)CCCCC2)c1 | -11
75 | O=C(CSc1nc2nc(-c3cccs3)cc(C(F)(F)F)c2c(=O)[nH]1)Nc1ccc(F)c(F)c1 | 0.142
76 | COc1cccc(C(C(=O)NC2CCCC2)N(CC2CCCO2)C(=O)Cc2cccs2)c1 (centres unmarked) | 10.2
77 | CN(CC1CCCO1)S(=O)(=O)c1ccc(C(=O)N2CCN(c3ccccc3)CC2)cc1 (centres unmarked) | 5.16
78 | CN(C)c1ccc(-c2ccc3c(=O)c4ccccc4n(C)c3c2)cn1 | 5.09
79 | NS(=O)(=O)c1ccc(CCNc2nc(CN3CCCCC3)nc3sc4c(c23)CCC4)cc1 | -53
80 | Cc1ccc(C(NC(=O)N2CCOCC2)=C(Cl)Cl)cc1F | -2.33
81 | CCc1ccc(NC(=O)NNC(=O)c2ccc3ccccc3c2O)cc1 | 15.2
82 | O=C(c1cccc(S(=O)(=O)N2CCN(c3ccccc3)CC2)c1)N1CCN(c2ccccc2O)CC1 | -9.06
83 | O=C(Nc1cccc([N+](=O)[O-])c1)Nc1cccc([N+](=O)[O-])c1 | 11.8
84 | CCN(CC)CCNC(=O)CS(=O)Cc1nc(-c2ccccc2Cl)oc1C (centres unmarked) | 0.188
85 | CCC1(c2ccc(F)cc2)NC(=O)N(CC(=O)N2CCOCC2)C1=O (centres unmarked) | 3.59
86 | O=C(NCC1CCCN(C2Cc3ccccc3C2)C1)c1cccs1 (centres unmarked) | -13.9
